About 530 (0.13%) of roughly 410,000 compounds were called active. The inconclusive results got no clear call from the source; some entries with a clear call stand among them for comparison. Calls come from the whole dose curve; as a rule, active = well fitted inhibition curve with a large enough effect; inconclusive = small, poorly fitted or top-dose-only effect, or another doubt; inactive = no such curve, though single readings can be large or run the other way. Potencies beside an inconclusive call are fits to weak or partial responses and may not hold up.
Experiment: qHTS of GLP-1 Receptor Inverse Agonists: Cytotox Screen
Settings: HEK293 cAMP-luciferase reporter cells, luminescence, 24 h; series mostly up to 38.3 µM
In short: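 Luminescence readout: signal drop marks cytotoxicity. Plated cells grew 12 h at 37 °C, 5% CO2, received 23 nL compound for 24 h, then got luciferase reagent, read after 12 min at RT.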
Potency is the fitted concentration of half-maximal effect.

SMILES	Potency
COc1ccc(OCC(=O)Nc2c(C(=O)N3CCN(C)CC3)oc3ccccc23)cc1	inactive
C/C(=N\NC(=O)C(C)Oc1ccc([N+](=O)[O-])cc1)c1ccccn1 (stereo not drawn)	inconclusive: 3.98 µM [inhibitor, full curve, poor fit]
COC(=O)c1ccc(NCc2cc(O)ccc2O)cc1O	inconclusive: 28.2 µM [inhibitor, single point]
Cc1c(NC(=O)c2cccc(NC(=O)Cc3ccccc3Cl)c2)c(=O)n(-c2ccccc2)n1C	inactive
COc1ccc(OCCCC(=O)Nc2nc(-c3ccccn3)cs2)cc1	inconclusive: 7.94 µM [inhibitor, partial curve, poor fit]
COc1ccc(-n2nnnc2SCC(=O)c2cccc(OC)c2)cc1	inconclusive: 11.2 µM [inhibitor, partial curve, poor fit]
Cc1cccc(NCc2nc3ccccc3n2Cc2ccccc2)c1	inconclusive: 31.6 µM [inhibitor, single point]
CC1CCN(C(=S)NC(=O)c2ccc(F)cc2)CC1	inconclusive: 3.16 µM [inhibitor, full curve]
O=C(/C=C/c1ccccc1Cl)c1cccnc1	inconclusive: 12.6 µM [inhibitor, single point]
CC1CCCC(NC(=O)COC(=O)CN2C(=O)C3CCCCC3C2=O)C1C (stereo not drawn)	inactive
CC1CCN(C(=S)NC(=O)c2ccc(C(C)(C)C)cc2)CC1	inconclusive: 28.2 µM [inhibitor, single point]
CCn1c(SCC(=O)N/N=C/c2c[nH]c3ccccc23)nnc1-c1ccc(Cl)cc1	inconclusive: 11.2 µM [inhibitor, partial curve, poor fit]
CCOc1ccc2nc(SC3CC(=O)N(c4ccc(OC)cc4OC)C3=O)sc2c1 (stereo not drawn)	inconclusive: 11.2 µM [inhibitor, single point]
C=CCn1c(CSc2ccccc2[N+](=O)[O-])n[nH]c1=S	inactive
COc1cc(OC)cc(C(=O)Nc2ccc(S(=O)(=O)N3CCCCC3c3cccnc3)cc2)c1 (stereo not drawn)	inconclusive: 2 µM [inhibitor, partial curve, poor fit]
CSc1cccc(NC(=O)NCc2cccc(CNC(=O)Nc3cccc(SC)c3)c2)c1	inconclusive: 11.2 µM [inhibitor, partial curve, poor fit]
O=C(COc1ccc2c(c1)OCO2)Nc1ccc2c(c1)oc1ccccc12	inconclusive: 10 µM [inhibitor, partial curve]
COc1cc(CNCCO)cc(Cl)c1OCc1ccccc1Cl	inconclusive: 28.2 µM [inhibitor, single point]
